From PubChem BioAssay AID504832 (National Center for Advancing Translational Sciences (NCATS), 2011)
About 18,000 (5.8%) of roughly 310,000 compounds were called active. Inconclusive means that the source gave no clear call. Such entries were picked first, then a sample of the others. The call rests on the fitted dose curve; in most records, active means well fitted inhibition curve with a large enough effect; inconclusive means small, poorly fitted or top-dose-only effect, or another doubt; inactive means no such curve, though single readings can be large or run the other way. No potency is given beside an inconclusive call; the fits are too rough.

Test: Primary qHTS for delayed death inhibitors of the malarial parasite plastid, 48 hour incubation
Conditions: P. falciparum luciferase growth in erythrocytes; series mostly up to 28.7 µM; activity change, negative = inhibition: at the top concentration
In short: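 Growth was read as firefly luciferase luminescence after a 48 h, 37 C, 5% CO2 exposure of compounds to reporter-bearing P. falciparum cultures (0.1% parasitemia, 2% hematocrit final) in Albumax-supplemented RPMI 1640.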
On the % scale 0 is the no-effect control and ±100 the full control effect; potency means the concentration at half of the fitted maximal effect; tags describe the fitted curve by direction and shape.

Structure (SMILES) | activity change, negative = inhibition | Potency
NCC[C@H](O)C(=O)N[C@@H]1C[C@H](N)[C@@H](O[C@H]2O[C@H](CN)CC[C@H]2N)[C@H](O)[C@H]1O[C@H]1O[C@H](CO)[C@@H](O)[C@H](N)[C@H]1O | inactive: -4.95% | –
COc1ccc(C)cc1NC(=O)CO/N=C(\N)CC(=O)Nc1ccccc1OC | – | inconclusive [inhibitor, partial curve]
COc1ccc(/C=C/C(=O)NCCCN2CCCCCC2)cc1 | – | inconclusive [inhibitor, single point]
COc1ccc(CNCCNC(=O)c2cccs2)c(OC)c1OC | inactive: -0.22% | –
CCOC(=O)N1CCN(Cc2nc3c(c(=O)n(C)c(=O)n3C)n2CCCc2ccccc2)CC1 | – | inconclusive [inhibitor, single point]
CC1CCN(S(=O)(=O)c2cc3c4c(c2)CCN4C(=O)CC3)CC1 | – | inconclusive [inhibitor, single point]
COc1ccc(NC(=O)CSc2ccc3nnc(-c4cccnc4)n3n2)cc1 | – | inconclusive [inhibitor, partial curve, poor fit]
O=[N+]([O-])c1cc(Cl)ccc1Oc1ccc(-c2nnco2)cc1 | – | inconclusive [inhibitor, partial curve, poor fit]
O=C(NC(Cc1c[nH]c2ccccc12)C(=O)Nc1ccc(OC(F)(F)F)cc1)c1cccs1 (stereo not drawn) | inactive: -11.8% | –
CC(C(=O)c1ccc(Cl)cc1Cl)n1cncn1 (stereo not drawn) | – | inconclusive [inhibitor, partial curve, poor fit]
CCCN1CCN(C(=O)CCc2nnc3ccc(N4CCN(c5cccc(OC)c5)CC4)nn23)CC1 | – | active: 10.4 µM
CCOc1ccccc1CN1CCN(Cc2ccon2)CC1CCO (stereo not drawn) | inactive: -10.4% | –
COc1ccccc1Nc1nnc(SCC(=O)c2cc(C)n(CC3CCCO3)c2C)s1 (stereo not drawn) | – | active: 10.4 µM
COCC1CCCN(Cc2cn(-c3ccccc3)nc2-c2ccc3c(c2)OCO3)C1 (stereo not drawn) | – | active: 9.28 µM
C[C@]12C=CC(=O)C=C1CC[C@@H]1[C@@H]2[C@@H](O)C[C@@]2(C)[C@H]1CC[C@]2(O)C(=O)COC(=O)CCC(=O)O | – | inconclusive [inhibitor, partial curve]
CCOc1ccc(CNC(=O)CCCn2nc(CC)n3c(cc4occc43)c2=O)cc1 | inactive: -15.1% | –
Cc1cc(N2C(=O)CC(N3CCN(c4ccc(C(=O)c5cccs5)cc4)CC3)C2=O)no1 (stereo not drawn) | – | inconclusive [inhibitor, partial curve, poor fit]
O=C(C[n+]1cccc(NC(=O)c2ccccc2)c1)c1cccc([N+](=O)[O-])c1 | – | inconclusive [inhibitor, single point]
